PubChem BioAssay AID686978 (National Center for Advancing Translational Sciences (NCATS), 2013)
The whole screen tested about 420,000 compounds, of which about 64,000 (15%) were called active. Inconclusive results, whose numbers are uncertain, are shown with a selection of clear calls. Calls follow the shape of the dose curve; as a rule, active = well fitted inhibition curve with a large enough effect; inconclusive = small, poorly fitted or top-dose-only effect; inactive = flat fitted curve, though single readings scatter. Potencies of inconclusive entries are left out as doubtful fits.

Test: qHTS for Inhibitors of human tyrosyl-DNA phosphodiesterase 1 (TDP1): qHTS in cells in absence of CPT; also: nearly all actives have a fitted effect of over 55% in size
Conditions: DT40 Tdp1-/- hTDP1 cells, no CPT, ATP luminescence, 48 h; activity change, negative = growth inhibition: at 46.2 µM (top of the series) unless noted
In short: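 Cells were dispensed at 400 per well, compounds added by pin tool, plates incubated ≥48 hr at 37 °C, then CellTiter-Glo added for 30 min at room temperature before luminescence reading. Line: DT40 Tdp1-/- complemented with hTDP1; camptothecin omitted.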
% is scaled to controls: 0 for no effect and ±100 for the full control effect; potency is read from the fitted curve at half-maximal effect; tags tell the direction and shape of the fitted curve.

| SMILES | Potency | activity change, negative = growth inhibition |
| --- | --- | --- |
| CCCCCc1c(C)nc(N2CCc3ccccc3C2)[nH]c1=O | inconclusive [inhibitor, partial curve, poor fit] |  |
| COC(=O)c1ccc(OCC(=O)c2ccc(C)c(C)c2)cc1 | inconclusive [inhibitor, single point] |  |
| Cc1ccc(CC(=O)Nc2ccc3c(c2)N(C)C(=O)c2ccccc2S3)cc1 | inconclusive [inhibitor, single point] |  |
| CCOC(=O)c1c(C)n(C)c2ccc(OC)c(NC(=O)c3cccs3)c12 | inconclusive [inhibitor, single point] |  |
| COCCn1c(C)cc(C(=O)COc2ccc(C)nc2[N+](=O)[O-])c1C | inconclusive [inhibitor, single point] |  |
| COc1cc(/C=N/NC(=O)C2c3ccccc3Oc3ccccc32)ccc1O | inconclusive [inhibitor, single point] |  |
| CC1(C)CC(=O)c2c(n(-c3cccc4ccccc34)ccc2=O)C1 | inactive |  |
| CCOC(=O)Cn1c(=O)c(-c2ccccc2NC)nc2ccccc21 | inconclusive [inhibitor, partial curve, poor fit] |  |
| CN(C)C(=O)CCC(=O)N1CCCCC1C(=O)Nc1ccc(Oc2ccccc2F)cc1 (stereo not drawn) | inconclusive [inhibitor, single point] |  |
| Cc1cc2nc(C)n(CCCN)c2cc1C | active: 18.4 µM |  |
| CCOC(=O)C1(Cc2cccc(OC)c2)CCCN(S(=O)(=O)CC)C1 (stereo not drawn) | inconclusive [inhibitor, single point] |  |
| COc1ccc(-c2nnnn2-c2ccccc2OC)cc1 | inconclusive [inhibitor, single point] |  |
| Cc1ccnc2ccc(N)cc12 | inconclusive [inhibitor, partial curve, poor fit] |  |
| O=c1[nH]c(C2CCCN(S(=O)(=O)c3ccccc3Cl)C2)nc2c1nnn2Cc1ccc2c(c1)OCCO2 (stereo not drawn) | inconclusive [inhibitor, single point] |  |
| COc1cccc(-c2nc(CS(=O)(=O)CC(=O)N3CCCCC3)c(C)o2)c1 | inactive |  |
| c1ccc(-c2ccc(C3=Nn4c(nnc4-c4cc(-c5ccccc5)n[nH]4)SC3)cc2)cc1 | inconclusive [inhibitor, single point] |  |
| CCc1cccc(NS(=O)(=O)c2ccc3c(c2)CCC(=O)N3)c1 | inconclusive [inhibitor, single point] |  |
| CCOc1ccc(N(CC(=O)N2CCN(Cc3ccccc3)CC2)S(C)(=O)=O)cc1 | inactive |  |
| CC(=O)N1c2ccc(C)cc2Sc2c1ccc1ccccc21 |  | inconclusive: -33.8% [inhibitor] |
| CC(C)[C@H](NC(=O)C1CC(=O)N(c2ccc(F)cc2)C1)C(=O)N1CCCCC1 (stereo partly drawn) | inconclusive [inhibitor, single point] |  |
| CS(=O)(=O)c1ccccc1C(=O)N(CCC1=CCCCC1)c1c(N)n(Cc2ccccc2)c(=O)[nH]c1=O | inconclusive [inhibitor, partial curve, poor fit] |  |
| Cc1c(C)c(C)c(CO/N=C/c2cccs2)c(C)c1C | inconclusive [inhibitor, single point] |  |

| SMILES | Potency | activity change, negative = growth inhibition |
| --- | --- | --- |
| CCOC(=O)c1ccc(NC(=O)CSc2cn(CC(=O)N3CCCC3)c3ccccc23)cc1 | active: 18.4 µM |  |
| CCc1ccc(-c2cn3c(n2)sc2cc(C(=O)NCCC4=CCCCC4)ccc23)cc1 | inconclusive [inhibitor, single point] |  |
| CCCOc1ccc(C(=O)Nc2ccc3oc(-c4cccc(Cl)c4Cl)nc3c2)cc1 | active: 7.31 µM |  |
| CCCNC(=O)C1(C)CCCN(C(=O)c2ccc3sccc3c2)C1 (stereo not drawn) | inconclusive [inhibitor, single point] |  |
| COc1ccc(OC)c(N(CC(=O)O)S(=O)(=O)c2ccc(OC)c(OC)c2)c1 | inactive |  |
| O=C1CCCN1c1ncc(S(=O)(=O)c2ccc([N+](=O)[O-])cc2)s1 | inconclusive [inhibitor, single point] |  |
| CCOC(=O)c1ccc(NC(=O)C(Cc2ccccc2)N2Cc3ccccc3C2=O)cc1 (stereo not drawn) | inconclusive [inhibitor, single point] |  |
| CCn1c(=O)c2sccc2n2c(CCCC(=O)N3CCN(c4cccc(Cl)c4)CC3)nnc12 | active: 16.4 µM |  |
| O=C(COc1ccccc1)N1CCc2ccccc21 |  | inconclusive: -31.2% [inhibitor] |
| CC1=C(C(N)=O)C(c2ccccc2[N+](=O)[O-])n2ncnc2N1 (stereo not drawn) | inactive |  |
| CC(C)OC(=O)CN1CCN(c2ccc(Cl)cc2)CC1 | inconclusive [inhibitor, partial curve, poor fit] |  |
| CCn1c(C)[n+](CCOCC[n+]2c(C)n(CC)c3cc(Cl)c(Cl)cc32)c2cc(Cl)c(Cl)cc21 | inactive |  |
| Clc1cccc(Nc2nc(-c3ccncc3)cs2)c1 | inconclusive [inhibitor, single point] |  |
| Cc1cc(C)nc(NC(=S)Nc2ccc(Br)cc2Cl)c1 | active: 6.51 µM |  |
| CSc1cccc(CNC(=O)C2CCC(=O)N(CC3CCCCC3)C2)c1 (stereo not drawn) | inconclusive [inhibitor, single point] |  |
| Cc1[nH]n(-c2ncc(-c3ccc(Cl)cc3)s2)c(=O)c1C(c1ccc(Cl)cc1)C(C#N)C#N (stereo not drawn) | inconclusive [inhibitor, single point] |  |
| COc1ccc(-c2cnc3ccccc3n2)cc1NC(=O)CNC(=O)c1ccccc1 | inconclusive [inhibitor, partial curve] |  |
| COc1ccc(C(=O)c2c(C)c3ccccc3n2CC(O)CNC(C)C)cc1 (stereo not drawn) | active: 23.1 µM |  |
| O=c1[nH]c(=O)n(-c2ccccc2)c2c1C(C(F)(F)F)(C(F)(F)F)N=C(C1CCCCC1)N2 | active: 23.1 µM |  |
| Clc1ccc(Cn2c(-c3cccnc3Cl)nc3ccccc32)c(Cl)c1 | inconclusive [inhibitor, single point] |  |
| COc1ccccc1C/C(N)=N/OC(=O)COc1ccc(C)cc1 | inconclusive [inhibitor, partial curve, poor fit] |  |
